The full ranking holds about 33,000 sequences; the median of “E-score (-0.5 to 0.5)” is about -0.036, and the highest 2% start at about 0.37. This is one part of the list.
target: T1, Yer064c (UniProt P40041); assay: PBM E-score (8-mer binding enrichment) (E-score (-0.5 to 0.5)); higher = stronger / more preferred TF binding; most listed sequences are background and not binding sites; conditions: protein concentration: 200 nM; construct: GST-full length
T1 sequence: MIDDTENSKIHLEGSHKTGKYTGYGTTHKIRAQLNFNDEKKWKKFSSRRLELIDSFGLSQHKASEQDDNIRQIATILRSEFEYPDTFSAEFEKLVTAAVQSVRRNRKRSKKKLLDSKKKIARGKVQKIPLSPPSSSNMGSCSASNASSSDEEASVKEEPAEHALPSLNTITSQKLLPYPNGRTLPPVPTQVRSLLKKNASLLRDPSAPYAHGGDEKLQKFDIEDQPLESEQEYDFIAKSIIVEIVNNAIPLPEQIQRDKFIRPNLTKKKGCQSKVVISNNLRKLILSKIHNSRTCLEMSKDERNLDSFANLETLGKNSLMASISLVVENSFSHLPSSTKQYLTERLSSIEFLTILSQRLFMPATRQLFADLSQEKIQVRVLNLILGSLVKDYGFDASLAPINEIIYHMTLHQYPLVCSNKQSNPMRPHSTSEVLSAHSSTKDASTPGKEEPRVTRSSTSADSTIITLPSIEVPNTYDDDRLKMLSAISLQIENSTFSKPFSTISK
Summary of the method: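 Universal all-10-mer Agilent arrays, fresh or stripped once, were converted to double-stranded form by primer extension. GST-tagged yeast transcription factors from PURExpress in vitro transcription/translation, full-length or DNA-binding domain only, were applied at about 100-200 nM and detected with fluorescent anti-GST. After masliner normalisation, the Universal PBM Analysis Suite scored each ungapped eight-base word together with its reverse complement by E-score.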

| Sequence | PBM E-score |
| --- | --- |
| GCGGTAGC | -0.199 |
| ATACCACA | -0.165 |
| ATACGGTA | 0.0045 |
| ACCCAACC | -0.00195 |
| TCGGCAGA | 0.106 |
| AAGAACTT | 0.0118 |
| CCAATCTC | -0.0242 |
| ACCTAACC | -0.0292 |
| GTATCTTA | 0.0828 |
| CCAAATAA | 0.0058 |
| ATGGTATG | 0.0703 |
| AAATCAAG | 0.0497 |
| ACATGACA | 0.155 |
| ACCGCTTC | -0.207 |
| CCAGGTGA | 0.0235 |
| AGGGGGAC | -0.0973 |
| CTACGTAA | -0.0165 |
| ATGCCTGC | -0.252 |
| CATACAGA | 0.0209 |
| ATGGAGGC | -0.342 |
| AAGTTCGA | 0.0338 |
| CGAGCTTA | -0.145 |
| CCTGATCC | -0.00892 |
| GCCGTCAA | -0.207 |
| AAGCTTGT | -0.146 |

| Sequence | PBM E-score |
| --- | --- |
| GTTTGGCA | -0.0961 |
| CTTCTGCC | -0.225 |
| AGCGACAA | -0.0949 |
| AAGGTTTG | 0.0818 |
| CCTATCTC | -0.101 |
| GACGGCTC | -0.116 |
| CTGGAGCA | -0.309 |
| TATGGCAA | -0.153 |
| AAATACCC | -0.0319 |
| GCAAAGCA | -0.135 |
| GCTCGGCC | -0.296 |
| AATCGGGA | 0.0737 |
| CTCCCGTC | -0.0226 |
| ACAGTACT | 0.106 |
| AGGGCTCA | 0.0211 |
| CTATCGAC | -0.149 |
| GCCGAAAA | 0.0564 |
| CTGTACGC | -0.0505 |
| CTAGTGCA | -0.0895 |
| AGTCAACT | 0.424 |
| CAATCGGC | 0.04 |
| ACAAATTC | -0.0748 |
| CCTGACAG | -0.0099 |
| GCCGCACC | -0.218 |
| GCCAAACA | -0.0582 |

| Sequence | PBM E-score |
| --- | --- |
| TGTGCCAA | 0.0362 |
| CAGTATTC | -0.131 |
| CACAATAA | 0.241 |
| CCAAGCTC | -0.22 |
| CGCGGTAA | -0.114 |
| AGGGCCTC | -0.235 |
| AAGGCTGT | -0.161 |
| GACCCTAC | -0.282 |
| GGTCGAAA | -0.231 |
| ATAGCGAT | -0.205 |
| GGTACTCA | 0.381 |
| CTTTTGTC | -0.173 |
| TATCACAA | 0.0279 |
| GCACCATA | -0.118 |
| CTGCCGTA | -0.333 |
| GGTTCGTA | 0.0347 |
| CCCTTCAC | -0.0295 |
| ACAGCCTC | -0.308 |
| CATTTTAG | -0.0477 |
| CGCTCCAC | -0.32 |
| TCTTTACA | 0.105 |
| AGCTAAAA | 0.029 |
| ATGGCATG | -0.0482 |
| ATTCGAAG | 0.15 |
| TAGAGCAA | -0.131 |

| Sequence | PBM E-score |
| --- | --- |
| GTCGGCGA | 0.141 |
| TGATCGAA | -0.0776 |
| CAGCTCAG | -0.107 |
| ATATTTCC | 0.074 |
| CCTGTCCC | -0.203 |
| AATGGTGT | 0.0349 |
| TATGCCGA | 0.0735 |
| GATTAAAC | 0.288 |
| AGAACCTG | -0.15 |
| ATGTCGTA | 0.0166 |
| CGTGTCCA | -0.15 |
| TAACGATA | 0.123 |
| AGGGACTC | 0.242 |
| AGGGCGGA | -0.229 |
| ACCAAGTG | -0.0779 |
| CCGCTTCC | -0.179 |
| ACAGTTGC | -0.163 |
| ATTTACCA | 0.0521 |
| CCACTTAA | 0.0279 |
| AGGTGCTC | -0.347 |
| CATCTACG | 0.104 |
| AAGAGATC | -0.185 |
| AGCCCCAC | -0.227 |
| AAACTCGC | -0.168 |
| ACAGTGGC | -0.154 |

| Sequence | PBM E-score |
| --- | --- |
| CGTTCAAG | -0.0964 |
| GGGCTGGA | -0.21 |
| GCAGAGGA | -0.194 |
| AACACAGT | 0.0823 |
| TCCCATAA | -0.127 |
| TACCTCGA | 0.0549 |
| CAGTAACG | -0.0332 |
| GAGAGTAC | 0.134 |
| GATACCGA | 0.0724 |
| GGATACCA | 0.0154 |
| AAGGTCGT | -0.0241 |
| AGGGAGTC | 0.44 |
| AAAGCCTC | -0.184 |
| ATAAATCA | 0.277 |
| AGTGGAGC | -0.0359 |
| AGGTGGCA | 0.00435 |
| CGGAGCTA | -0.236 |
| CCGGTGAA | 0.00111 |
| TATGCCAA | -0.101 |
| AACTTGAC | 0.212 |
| CTACGGAA | 0.0329 |
| GCGCCGAC | -0.0263 |
| CCCTGCAC | -0.0944 |
| GCATTAGA | 0.0794 |
| GGCAACCA | -0.0925 |

| Sequence | PBM E-score |
| --- | --- |
| AGATGAAG | -0.126 |
| GCCTGTTA | -0.211 |
| ACTCATGG | 0.34 |
| ATTTCTTC | -0.058 |
| AGGGGCTG | -0.165 |
| CCATTGCA | 0.0942 |
| ACCGACCG | -0.184 |
| AGTTCTAC | -0.0918 |
| CAATTGAC | 0.125 |
| CTCGAACA | 0.186 |
| ACTTACTG | 0.201 |
| CCGTAGCC | -0.188 |
| CCACCGCC | -0.255 |
| GAGACTCA | 0.467 |
| ATTTGGCA | -0.0964 |
| CTGCTTAA | -0.0451 |
| CTGCCCAG | -0.139 |
| CCAGTTAG | 0.0237 |
| ACAACGTG | -0.0777 |
| CTGAAGTA | 0.203 |
| CAGCTAAG | -0.0893 |
| CGGCAACG | -0.0749 |
| GGCTAGAC | -0.135 |
| CTATCCTA | -0.0287 |
| CGGTAATC | 0.237 |

| Sequence | PBM E-score |
| --- | --- |
| GCAAATCC | -0.126 |
| AGCATCCA | -0.205 |
| CTCCACAC | -0.0862 |
| ATGGTTAG | 0.116 |
| AACCGGAG | -0.0933 |
| GGGGAGCA | -0.168 |
| CTGCAAAG | 0.0505 |
| GCCGCCAC | -0.161 |
| CGTTAGCC | 0.0926 |
| TAAGCGGA | 0.0766 |
| CAGAACTA | -0.086 |
| CCCAACCC | -0.151 |
| ACGCCACT | -0.186 |
| ATCCAATA | -0.0774 |
| AGTGTACG | 0.0235 |
| AGCTACCG | -0.148 |
| CCGTTCTC | -0.298 |
| CGCAGCCG | -0.16 |
| AAATAGGA | 0.0809 |
| AACTGCTG | -0.205 |
| AGAGGGTA | -0.0838 |
| CACTGACG | -0.077 |
